Some of these densities may be calculated back from excess volumes.
Test: xn = mol fraction of the nth substance listed
Conditions: 100 kPa

CC#N + C=CC[n+]1ccn(C)c1.O=S(=O)([N-]S(=O)(=O)C(F)(F)F)C(F)(F)F
x2 = 0
Conditions	mass density [kg/m3]
288.15 K	787.5
293.15 K	782.2
298.15 K	776.8
303.15 K	771.3
308.15 K	765.9
313.15 K	760.4
318.15 K	754.8

C=CC[n+]1ccn(C)c1.O=S(=O)([N-]S(=O)(=O)C(F)(F)F)C(F)(F)F + CC#N
mass density [kg/m3]
Conditions	x1 = 0.1	x1 = 0.2	x1 = 0.3	x1 = 0.4	x1 = 0.499	x1 = 0.6	x1 = 0.7003	x1 = 0.7998	x1 = 0.9003	x1 = 1
288.15 K	1057.2	–	1291.7	1353	1397.5	1431.5	1457.9	1478.8	1496.1	–
293.15 K	1051.7	1196.3	1286.4	1347.7	1392.2	–	1452.7	1473.7	1490.9	1505.4
298.15 K	1046.2	–	1281	–	1387	1421.1	1447.5	–	1485.8	1500.3
303.15 K	–	1185.4	1275.6	1337.1	1381.7	1415.9	1442.3	–	1480.7	1495.3
308.15 K	1035.1	–	1270.3	1331.8	–	1410.7	–	1458.3	1475.7	–
313.15 K	–	1174.5	–	1326.5	1371.3	1405.5	–	1453.2	–	1485.2
318.15 K	1024	1169	1259.6	–	1366.1	1400.4	1427	1448.2	1465.6	1480.2

COCC[N+]1(C)CCCC1.O=S(=O)([N-]S(=O)(=O)C(F)(F)F)C(F)(F)F + CC#N
mass density [kg/m3]
Conditions	x1 = 0.1	x1 = 0.2	x1 = 0.3	x1 = 0.4001	x1 = 0.5	x1 = 0.6	x1 = 0.7	x1 = 0.7999	x1 = 0.8999	x1 = 1
288.15 K	1054.3	1191.3	1272	1326	1365.1	1393.8	–	1435.4	1450.2	–
293.15 K	1049	1186.1	1266.9	1320.9	–	1388.9	–	–	1445.4	1458.2
298.15 K	1043.6	1180.8	1261.8	–	1355.2	1384	1407.9	1425.8	1440.7	1453.4
303.15 K	1038.2	1175.6	1256.7	1310.8	1350.2	–	–	1421	1435.9	1448.7
308.15 K	–	1170.4	1251.6	1305.9	1345.3	–	1398.3	1416.2	1431.2	–
313.15 K	1027.4	1165.1	1246.5	1300.9	–	1369.4	1393.5	–	1426.4	1439.3
318.15 K	1022	1159.9	1241.4	1295.9	1335.5	1364.6	1388.7	1406.7	1421.7	–

CC#N + COCC[N+]1(C)CCCC1.O=S(=O)([N-]S(=O)(=O)C(F)(F)F)C(F)(F)F
x2 = 0
Conditions	mass density [kg/m3]
288.15 K	787.5
298.15 K	776.8
303.15 K	771.3
313.15 K	760.4
318.15 K	754.8

COCC[N+]1(C)CCCC1.N#C[N-]C#N + O
mass density [kg/m3]
Conditions	288.15 K	293.15 K	298.15 K	303.15 K	308.15 K	313.15 K	318.15 K
x1 = 0.9189	1213.1	1209.9	–	1203.3	1200.1	1196.8	–
x1 = 0.9331	–	–	1207.2	1203.9	1200.6	1197.4	1194.2
x1 = 0.9509	1214.2	1210.9	1207.7	–	–	1197.9	1194.7
x1 = 0.9661	1214.6	–	1208.1	–	1201.6	–	1195.1
x1 = 1	1215.5	1212.2	1209	–	1202.5	–	1196
x2 = 0.0172	1215	1211.7	1208.4	1205.2	1201.9	1198.7	–

Source: a compilation of properties of binary mixtures (doi:10.1016/j.jtice.2022.104275)
